# Measurements: the supplement of paper PMC4466236
# The full ranking holds about 33,000 sequences; the median of “E-score (dimensionless, -0.5 to 0.5)” is about -0.058, and the highest 2% start at about 0.35. The list shows a part of the results.
# Tested on: MvaT
# Assay: PBM 8-mer E-score (mean of HK and ME arrays) (E-score (dimensionless, -0.5 to 0.5)); higher = stronger relative binding preference; most listed sequences are background and not binding sites
# Outline: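 Full-length P. aeruginosa MvaT, with glutathione S-transferase fused to its N-terminus (cloned into pTH6838 by isothermal assembly), was tested by protein binding microarray using a previously described protocol. Two universal double-stranded 60-mer arrays (ME and HK) were used, each with a constant 25-mer primer region and a variable 35-mer region covering all 8-mers. The rank-based 8-mer E-score (-0.5 to 0.5) is the mean of the two arrays, parsed with a custom Python script.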
row,Sequence,PBM 8-mer E-score
1,CAACCGGC,-0.178
2,ATTAGCTA,0.107
3,ATTCGCCC,-0.0494
4,ATAGCGCC,-0.0591
5,CAAGCAGA,-0.0444
6,ATGTGTAC,0.0955
7,ATGAGCTG,-0.246
8,AGCACTAC,-0.0935
9,AAGTGCCT,-0.163
10,AACGCGCA,0.101
11,ACTGCTGA,-0.0941
12,ACAAACCA,0.185
13,AAATGAAG,0.151
14,CTAAGCCA,-0.0776
15,CTGAGTAA,-0.0888
16,ATAATAAC,0.422
17,ACTCCACG,-0.133
18,ATACCCTG,-0.022
19,AGAATAAG,0.252
20,GCCATCTA,-0.115
21,CCTGTAGA,-0.101
22,AGATCAAA,0.0337
23,CCGTTAAC,0.0566
24,GGGCCGCA,-0.152

row,Sequence,PBM 8-mer E-score
1,AGTCCCAG,-0.0827
2,AAAAAATT,0.153
3,ACCAAGCT,-0.11
4,CATGTTGG,0.0133
5,GGCAATCA,0.0212
6,CACCAGGG,-0.259
7,ACGAGTAT,0.141
8,AGTTGGAC,-0.145
9,CTCCTTGA,-0.199
10,CAACTGTC,-0.0355
11,ATACTTCC,0.155
12,CCGAGGCC,-0.225
13,CGATCTGC,-0.0964
14,GCGAGGTA,-0.119
15,GTCGATGA,-0.185
16,GACTGGGC,-0.329
17,GAATACTC,0.00428
18,ACGTGGGG,-0.199
19,ATACGAGA,0.095
20,CTCTGCTC,-0.211
21,AGCTTAAT,0.171
22,AGTCAGCA,-0.0242
23,ACAGGGGA,-0.231
24,CCTTGTCC,-0.26

row,Sequence,PBM 8-mer E-score
1,TACGTGGA,-0.108
2,CGTTGAAG,-0.066
3,ATACTTGC,0.289
4,GCGAGTAC,-0.117
5,CCTCTAGA,-0.0339
6,CGGGTGGC,-0.108
7,CCGTGACA,-0.0782
8,AGGCTTTG,-0.0107
9,GTATCTGA,0.0532
10,AGGTCATG,-0.127
11,GATCTGTA,0.0527
12,ATGCTCGG,-0.19
13,TTAGTCAA,0.221
14,AGGTCAGA,-0.187
15,AAACGTCT,-0.0815
16,CGTTGTCA,0.00477
17,AAGTGGAT,-0.0311
18,CTCCCGGC,-0.273
19,CTCTCTGA,-0.148
20,CTAACCGA,-0.00329
21,CATTGTTA,0.157
22,ATCTTGTC,-0.0194
23,CCTTCGCG,-0.271
24,CGCATGGA,-0.258

row,Sequence,PBM 8-mer E-score
1,CATTATGG,0.14
2,GGAACCCA,-0.163
3,CATTCCAG,-0.269
4,ATGTGGCC,-0.206
5,AGTGTGGC,0.00691
6,AGAAGGAG,-0.258
7,ATGGCCGG,-0.171
8,CCCGCTCA,-0.213
9,GAGTGATA,0.242
10,AACGCCAA,0.0416
11,AGCAATCG,-0.0963
12,CAATTGGG,-0.0128
13,GACTGGCA,-0.25
14,ACCCAATC,-0.0955
15,AGAACCAA,-0.0552
16,AGGATTGA,-0.172
17,CTGGGCGC,-0.305
18,GCCATTCC,0.00899
19,ATTCTGTG,0.0582
20,GGCTTCTA,-0.102
21,ACACCACC,0.122
22,CCTTCATC,-0.241
